# Results from the supplement of paper PMC4604168 (melanoma cell lines).
# The other results are listed elsewhere or left out. Most values come without repeats; read them as rough.
# Test system: UACC62
# Assay: cell count relative to DMSO control; melanoma cells; higher = more viable cells
# Conditions: library dose: standard library concentration; 72 h
# 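Also: cells treated in 1,536-well plates, then fixed and DAPI-stained, with nuclei counted from automated high-throughput microscope images.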
row,SMILES,cell count
1,"C[C@@H]1CCN(C(=O)CC#N)C[C@@H]1N(C)c1ncnc2[nH]ccc12 + Oc1nc(-c2ccc(C(F)(F)F)cc2)nc2c1CSCC2 [XAV939] (first compound 5 µM, partner dose 10 µM)",83.9%
2,"O=C(Nc1cccc(Cl)c1)Nc1ncc(CCNc2ncnc3ccsc23)s1 + CCCCCCCCCCCC1=C(O)C(=O)C=C(O)C1=O [Embelin] (first compound 0.004 µM, partner dose 6 µM)",100%
3,"COc1cc(Nc2ncc(F)c(Nc3ccc4c(n3)NC(=O)C(C)(C)O4)n2)cc(OC)c1OC [Tamatinib] + O=C(Nc1ccccc1)c1cc([N+](=O)[O-])ccc1Cl [GW9662] (first compound 2 µM, partner dose 10 µM)",105%
4,"Cn1cncc1[C@@](N)(c1ccc(Cl)cc1)c1ccc2c(c1)c(-c1cccc(Cl)c1)cc(=O)n2C [tipifarnib] + N#Cc1c(O)c2c(-c3ccc(-c4ccccc4O)cc3)csc2[nH]c1=O [A769662] (first compound 0.05 µM, partner dose 10 µM)",92.2%
5,"O=C(Nc1cccc(Cl)c1)Nc1ncc(CCNc2ncnc3ccsc23)s1 + COc1cc(N2CCC(N3CCN(C)CC3)CC2)ccc1Nc1ncc(Cl)c(Nc2ccccc2S(=O)(=O)C(C)C)n1 [NVP-TAE684] (first compound 0.004 µM, partner dose 0.4 µM)",112%
